# In all, about 110,000 compounds went through this assay and about 230 (0.21%) showed an effect of 50% or more. The list shows a part of the results.
# Biological target: DPAP1 (Plasmodium falciparum, UniProt Q8IIJ9)
# Experiment: primary screen, percent inhibition; read by cleavage of a fluorogenic dipeptide substrate; higher = more effect of the substance
# Parameters: species or system P. falciparum D10 trophozoite lysates; single well
# 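Also: 30 min substrate incubation versus DMSO and 10 µM JCP410 controls.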
# DPAP1, sequence (Q8IIJ9 whole entry, looked up): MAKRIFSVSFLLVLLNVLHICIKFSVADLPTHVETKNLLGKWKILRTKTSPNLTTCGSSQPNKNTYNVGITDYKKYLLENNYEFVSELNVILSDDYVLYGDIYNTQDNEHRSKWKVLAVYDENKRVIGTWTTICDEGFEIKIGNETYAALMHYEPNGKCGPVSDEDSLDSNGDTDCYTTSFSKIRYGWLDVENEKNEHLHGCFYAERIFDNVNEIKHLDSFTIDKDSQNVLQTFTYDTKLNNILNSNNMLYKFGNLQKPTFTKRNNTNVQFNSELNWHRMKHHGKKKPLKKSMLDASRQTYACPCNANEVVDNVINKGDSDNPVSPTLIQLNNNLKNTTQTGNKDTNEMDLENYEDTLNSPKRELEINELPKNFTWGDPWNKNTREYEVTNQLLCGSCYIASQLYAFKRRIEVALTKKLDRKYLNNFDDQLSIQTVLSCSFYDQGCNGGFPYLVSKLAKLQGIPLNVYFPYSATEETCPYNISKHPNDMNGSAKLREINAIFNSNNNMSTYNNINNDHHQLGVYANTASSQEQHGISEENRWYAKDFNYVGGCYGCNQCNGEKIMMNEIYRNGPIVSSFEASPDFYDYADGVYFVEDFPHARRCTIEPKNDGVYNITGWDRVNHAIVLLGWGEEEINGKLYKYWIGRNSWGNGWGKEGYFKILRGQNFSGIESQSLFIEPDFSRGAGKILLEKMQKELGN
row,SMILES,% Inhibition @ 10 uM [%]
1,O=C(c1ccccc1)c1ccc2nc(NCC3CCCO3)c3nncn3c2c1 (stereo not drawn),2.42
2,NC(=O)c1ccc(NC(=O)CN(Cc2ccc(Cl)cc2)S(=O)(=O)c2ccccc2)cc1,20
3,CCOCCCNC(=O)c1cc2c(=O)oc3ccc(C)cc3c2s1,-2.75
4,COc1ccc(N(CC(=O)N2CCc3ccccc3C2)S(C)(=O)=O)cc1OC,-2.32
5,CCCCC12CN3CC(C)(CN(C1)C3c1ccc(OC(C)C)cc1)C2=O (stereo not drawn),-1.71
6,Cc1ccc(-n2c(=O)[nH]c3ncccc3c2=O)cc1,-3.45
7,COC(=O)c1ccc2c(c1)C(=O)N(c1ccsc1Cl)C2=O,-6.17
8,O=C1CCCC2=C1C(c1ccccc1Cl)C1=C(CCCC1=O)O2,2.69
9,Cc1c(CNCC(C)c2ccccc2)c(C(=O)O)c(C)n1Cc1cccc(Cl)c1 (stereo not drawn),7.46
10,CCCN1C(=O)c2ccccc2NC1c1ccc(O)c(OCC)c1 (stereo not drawn),8.6
11,Cc1nonc1OCC(C)(COc1nonc1C)NS(=O)(=O)c1ccc(Cl)cc1,4.34
12,COc1ccc(CNC(=O)c2cc3ccc4cccnc4c3[nH]2)cc1,2.6
13,NC(=O)/C(=C/c1ccc2c(c1)OCO2)NC(=O)c1cccc(Br)c1,0.214
14,O=C1N=C(N2CCc3ccccc3C2)S/C1=C\c1ccccc1,1.52
15,Cc1ccc2cc3cc(C(=O)N4CCC5(CC4)OCCO5)oc3nc2c1,-3.35
16,Cc1nn(CC(=O)NCCC2=CCCCC2)c(=O)c2c1sc1ccccc12,-4.26
17,O=C(CNc1ccc(Cl)cc1)c1ccc(Cl)cc1,-1.69
18,CCCCn1c(=O)c(C#N)cc2c(=O)n3ccccc3nc21,2.73
19,Cc1cc(OCC(=O)N2CCOCC2)ccc1Br,-2.36
20,C=CCc1c(C)nc(-c2ccccc2)nc1Nc1ccc(C)cc1,-2.44
21,c1ccc2c(c1)CCN(Cc1ccncc1)C2,-0.446
22,O=C(c1cccs1)c1coc2ccc(O)c(CN3CCOCC3)c12,3.6

row,SMILES,% Inhibition @ 10 uM [%]
1,COc1cccc2c1OC(CC(C)C)N1N=C(c3cc(C)ccc3O)CC21 (stereo not drawn),-5.36
2,Cc1c(NC(=O)C(c2ccccc2)c2ccccc2)c(=O)n(-c2ccccc2)n1C,4.54
3,COc1ccc(CN2CCCCCC2)cc1,-0.192
4,CCCc1ccc(Oc2cc(-c3ccccc3)nc(-c3ccccc3)n2)cc1,-11.3
5,O=C(CN1N=C(c2ccccc2)CCC1=O)NCc1ccccc1,-4.83
6,Oc1ccc(CN2CCN(c3ccccc3)CC2)cc1,-1.92
7,COc1cc2c(cc1OC)CC(C)(C)N(C(=O)c1ccccc1)C2,2.17
8,O=C(O)c1ccc(CS(=O)c2ccc(Cl)cc2)o1 (stereo not drawn),-1.28
9,CCOC(=O)CC(=N)Nc1sc2c(c1C#N)CCCC2,12.2
10,O=C1N/C(=C\c2ccc(N3CCOCC3)c(F)c2)C(=O)N1Cc1ccccc1,-4.14
11,Cc1ccc(CNC(=O)CNS(=O)(=O)c2ccc(Br)cc2)cc1,0.161
12,CC1=C(C(=O)Nc2ccccc2C)C(c2ccc(Cl)cc2Cl)NC(S)=N1 (stereo not drawn),-0.13
13,CCOc1ccc2ccccc2c1/C=N/n1cncn1,4.1
14,COc1cc(-c2c(C#N)c(N)nc(SCC(=O)O)c2C#N)cc(OC)c1OC,2.8
15,COc1ccc(CCNC(=O)Cn2ccc3cc(S(=O)(=O)N4CCCCC4)ccc32)c(OC)c1,-1.45
16,O=C(CS)Nc1ccc(C(=O)O)cc1,2.17
17,O=S(=O)(c1ccccc1)N1N=C(c2ccccc2)CC1c1ccccc1 (stereo not drawn),-10
18,Nc1c(C(=O)O)noc1C(=O)c1ccccc1,0.0882
19,Cc1ccc(-c2nnc(NC3CCCCC3)c3ccccc23)cc1S(=O)(=O)N1CCN(C)CC1,-2.65
20,CCOc1ccc([N+]2=C3SCCCN3C(O)(c3ccccc3)C2)cc1 (stereo not drawn),7.77
21,CCCc1cc(O)n2ncnc2n1,4.18
22,COc1cc(OC)cc(-c2nc3n(n2)C(c2cccc(OC)c2OC)C2=C(O)CCCC2=N3)c1 (stereo not drawn),0.275

row,SMILES,% Inhibition @ 10 uM [%]
1,COc1ccc(-c2cc(NC(=O)N3CCc4ccccc4C3)c3ccccc3n2)cc1,-8.79
2,COc1ccccc1/C=C/c1nn2c(Cn3cnc4ccccc43)nnc2s1,2.89
3,COc1ccc(OC)c(CNC(=O)Cc2csc3ccccc23)c1,1.63
4,C/C(=C/S(=O)(=O)c1ccc(C)cc1)N1CCCC1,2.19
5,O=C(COc1ccccc1O)NCCN1CCOCC1,-5.28
6,CCOC(=O)c1nn(-c2ccc(C)cc2)c(C)c1C(C)=O,6.3
7,CCOC(=O)N1CCC(NC(=O)Cn2ncn3nc(-c4ccc(OC)cc4)cc3c2=O)CC1,0.623
8,N#CC1=C(N)Oc2[nH]nc(-c3cccs3)c2C1c1cc(F)ccc1F (stereo not drawn),-4.65
9,CC(SCCc1ccccn1)C(=O)O (stereo not drawn),-8.51
10,NC(=O)C(=O)Nc1ccc2c(c1)OCCO2,2.41
11,COc1ccc2[nH]cc(CCNC(=O)C3CC3)c2c1,-1.76
12,CCOC(=O)c1c(C)n(Cc2ccc(OC)c(OC)c2)c2c1cc(O)c1ccccc12,-1.24
13,CCn1cnc2cc(NC(=O)c3ccco3)ccc21,0.709
14,Cc1sc(NC(=O)COc2ccccc2C(C)C)c(C(N)=O)c1C,1.57
15,C/C=C/CSc1nc2c(c(=O)n(C)c(=O)n2C)n1Cc1ccccc1,-2.68
16,NC(=O)Cn1cnc2c(nnn2Cc2ccccc2F)c1=O,-2.16
17,O=C(Nc1cccc(C(F)(F)F)c1)/C(=C/c1cccnc1)NC(=O)c1cccs1,1.01
18,O=C1CC(NCC(O)c2ccccc2)C(=O)N1c1ccc(Br)cc1 (stereo not drawn),-2.78
19,CCN1C(=O)S/C(=C/c2ccc(-c3cc(C(=O)O)ccc3C)o2)C1=O,6.79
20,COc1ccc(C2CC(=O)C(/C=N/CCc3ccccc3)=C(O)C2)cc1OC (stereo not drawn),1.57
21,CCN(CC)CCCOc1ccc(Br)cc1,5.06
22,O=C(Nc1cc([N+](=O)[O-])ccc1O)c1cccc2ccccc12,-1.74

# — paper PMC6919601, “Identification of Plasmodium dipeptidyl aminopeptidase allosteric inhibitors by high throughput screening” (PLoS ONE, 2019)
